This is one part of the list.
system: PF3D7_0420300 AP2 domain 1 (GST-tagged); test: gcPBM binding intensity (ln(normalized median fluorescence intensity)); higher = stronger DNA binding
Method in brief: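 DNA-binding domains from P. falciparum, fused to GST and produced in E. coli, were put on an Agilent 4 × 180k double-stranded probe array for 1 h in 1× PBS holding 1% milk, 0.2 mg/ml BSA, 0.5% salmon testes DNA and 0.03% Triton X-100. Probes were primer-extended, 36 bp long and drawn from intergenic genomic regions, with negative controls included. After Alexa488 anti-GST antibody detection and a 488 nm scan, binding intensity was set as the highest Masliner-normalised natural-log median intensity across replicate spots of either probe orientation.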

Point of comparison: “ATATTACTAATTAATGGTACACGTTATAATAAACTA [XGTACX_site7051]”, “gcPBM binding intensity (ln)” value 9.23. Against it:
- GTTTTAAAATTAAATATTATGGCATAATTCAAGAAA [GTGCAC_negctrl_site721] — lower, 8.88
- AAAAAAATTCTTGGCGCACACACTTTAAAAATTAAA [CACACA_site597] — higher, 9.24
- AAGGATTACAAAAAAAGTACAAATGGATTTTTTCCC [XGTACX_site8905] — lower, 9.16
- CTTACAAATAAACAACGTACTTATTCGAATTATGCT [XGTACX_site2431] — the same, 9.23
- CATACAGACGAACACACACACATATAAATATAAATA [CACACA_site6443] — higher, 9.91
- AAATATTATATATATACACACACACCGGCATGCACA [CACACA_site7916] — higher, 9.97
- AACCACATGGTGTAATGTACATTACCTTAACAATAA [XGTACX_site3055] — the same, 9.23
- TATTATTTTTTTTTTTGTACATATATGTATATATAT [XGTACX_site8471] — lower, 9.13
- TATAATAAAATTGGTAGTACATTAATTTATGTATAG [XGTACX_site3059] — lower, 9.14
- TTTTTTTTTTCTTAGGTGCAAAAAATAAGTATATAT [GTGCAC_site9394] — lower, 8.99
- AAAAAAAAAAGAACCCGTACATAAATAATATATATA [XGTACX_site164] — higher, 9.62
- TTAATTACATGTTATTGTACGTATTTTCTATCTATC [XGTACX_site844] — higher, 9.41
- AAAAAAAAAAAAGAAACACACACATTTGTATATAAT [CACACA_site8648] — higher, 9.84
- TATAGTTATATTAGAAGTACTTCATTTTAACATATT [XGTACX_site7101] — lower, 9.14
- GAAACATAAAAATATATTGAAATAGTATCATGGGTA [CACACA_negctrl_site352] — higher, 9.43
- TTTTTTTTGTATTAATGTACATATAACTTTTTTTTT [XGTACX_site7903] — lower, 9.2
- TAAAAAATAAAATAATGTACATATGAATTATATATT [XGTACX_site8398] — higher, 9.24
- CATTATAAGAAACACACACACATATATATATATATA [CACACA_site1051] — higher, 9.73
- AAAAAGAAGAATATATGTACACAAAATTTATGAGTT [XGTACX_site8609] — higher, 9.43
- AAAAAAAAAAATATATTATTTTACTTGTTTATTTTA [CACACA_negctrl_site1447] — lower, 9.07
- TAAACCAAACAATTATGTATAAGATGTATATATATA [GTGCAC_negctrl_site438] — higher, 9.37
- AAATTCTTAACCCAACGTACATATAATAAATTCTTA [XGTACX_site8538] — lower, 9.1
- ATTCCCTTAAGAAACTGTACAAAACTTTCTTCGATT [XGTACX_site775] — lower, 9.11
- TATACATAAATTATATGTACTGAAAATACATAATTA [XGTACX_site3626] — lower, 8.99
- GTGTGTGTATATATTTGTACATATATTTAAACATAT [XGTACX_site1074] — higher, 9.73
- GGTAGGTGGATATATACACACATATATTATAGATAT [CACACA_site7021] — higher, 9.65
- CACAGATATATACATACACACATATATACACATATA [CACACA_site6323] — higher, 9.72
- ATCGAGAAAAATAAAATAATACAATTTCTTTAAATA [XGTACX_negctrl_site162] — lower, 8.96
- TGACATAAATTTAATACACACACAAAGAAAAAAAAA [CACACA_site9354] — higher, 9.9
- TTTAAAAAAAAAAAAAAAAATTCTACATGTAATTTA [CACACA_negctrl_site1205] — lower, 8.64
- AGAAGAAAAGAAATATGTACATAAACGTCTGAACTA [XGTACX_site1699] — higher, 9.37
- ATAACAAATATGATAGCATGCTACATATTACAACTT [TGCATGCA_site524] — higher, 9.38
- GTTCCATATATTACATGTACATATTTTTACATTTAA [XGTACX_site660] — higher, 9.63
- TGATTAATAGCAGGTAGTACTATAATAATATAAATA [XGTACX_site2776] — lower, 9.16
- TTTAAACTAGAACAAGTGCAGATATGTATAATAATA — lower, 9.17
- AAGAAAAGATATATATATAAATATATATATATATAT [TGCATGCA_negctrl_site353] — lower, 9.01
- ATTTATTTTTATCAAGCATGCATAAAAAATAAATTA [TGCATGCA_site440] — lower, 8.74
- TATTTTTAGAAAATAAAGAAGGAGAATTGAAAATAT [CACACA_negctrl_site361] — lower, 9.21
- TTTTATTTTGGAACGTGTACATATAATTATTTATTG [XGTACX_site8094] — higher, 9.32
- AAAATATATACAAGCAAACACACGTAATATATATTA [CACACA_site2152] — higher, 9.53
- AGGTAGTTCTGTATCACACACATATAAATATAAATA [CACACA_site7110] — higher, 9.44
- GCATAAAATATGATCGCACACTGTTTAAAATACTTA [CACACA_site828] — higher, 9.36
- ATACCTTCTTCATTCACACATATACGTAAAATGTTC [CACACA_site5657] — higher, 9.4
